Out of some 52,000 compounds screened, about 4,300 (8.3%) were called active. No stated cut-off is given here; in the data, active means survival mostly below about 52% (no sharp cut-off); inactive means mostly above about 56%. Some of the results follow.

The experiment relates to DeltatarO mutant. Description: S. aureus survival, RN4220 and DeltatarO strains – OD600, teichoic acid synthesis inhibitors, primary screen (AID 463173). To be noted: S. aureus RN4220 wild type/DeltatarO growth, OD600, 18 h, stronger effect = lower value, screened at 18.75 µg/mL (by protocol).
In the case of `CC(=O)c1ccc(NC(=O)C2CCN(S(=O)(=O)c3c(C)noc3/C=C/c3ccc(C)cc3)CC2)cc1`, the survival was inactive: 69%.
With `COc1ccc(CNC(=O)CN2C(=O)COc3ccccc32)c(OC)c1`, the survival was inactive: 89%.
Consider `Oc1ccccc1-c1nc2cnccn2c1Nc1ccc(Cl)cc1`, for which the survival is active: 15%.
Then `CC(=O)N(C)c1nc(-c2ccccc2)cs1`, with inactive: 80%.
Consider `Cc1nc2c(c(C)nn2-c2ccccc2)c(C)c1CCC(=O)Nc1ccccc1`, for which the survival is inactive: 74%.
In the case of `CCCCSc1ncc(C(=O)OCC)c(N)n1`, the survival is active: 78%.
Consider `Cc1ccc(NC(=O)Cn2c(=O)n(Cc3ccc(F)cc3)c(=O)c3cccnc32)cc1C`, for which the survival is inactive: 91%.
For `N=c1c(C(N)=O)cc2c(=O)n3ccccc3nc2n1Cc1ccccc1`, the survival was inactive: 83%.
Turning to `O=C(Nc1ccccc1C(=O)NCc1ccccc1)c1ccco1`, the survival was inactive: 57%.
As to `CCCn1ccc2c(OCC(=O)Nc3ccccc3C(=O)OCC)cccc2c1=O`, the survival is inactive: 94%.
As for `O=C(CCCCn1c(=O)c2ccccc2n(Cc2ccc(F)cc2Cl)c1=O)NCCc1ccc(Cl)cc1`, the survival was inactive: 72%.
For the compound `COC(=O)c1ccccc1NC(=O)CCCn1c(C)c2cnn(-c3ccccc3)c(=O)c2c1C`, the survival is inactive: 90%.
Next, `O=S(=O)(NCCc1csc(-c2cccc(F)c2)n1)c1cc(F)ccc1F`: inactive: 62%; `Cc1ccccc1Cn1c(SCc2ccc(C(=O)N3CCCCC3)cc2)nc2ccncc21`: inactive: 76%.
On to `O=C(CSc1nc2ccccc2n1CC(=O)N1CCCC1)Nc1ccccc1`, for which the survival was inactive: 96%.
On to `CCCOc1ccc(OC(=O)c2ccc(-c3ccc(CCC)cn3)cc2)cc1`, for which the survival was inactive: 69%.
Next, `COc1ccc(CCNC(=O)c2cc(Nc3ccccc3)nc3ccccc23)cc1OC`: inactive: 129%; `O=C1CCc2cc(S(=O)(=O)NCc3ccccc3)cc3c2N1CC3`: inactive: 82%.
For the compound `COc1cc(NC(=O)CCNC(=O)Cn2ccc3ccccc3c2=O)cc(OC)c1OC`, the survival was inactive: 63%.
Turning to `COC(=O)c1c(NC(=O)CCCOc2ccc(C)cc2)sc2c1CCCC2`, the survival is active: 8%.
Consider `CCn1c(C(=O)Nc2ccccc2C(=O)OC)cc2sc(Cl)cc21`, for which the survival was active: 31%.
Then `CC1Cc2ccccc2N1C(=O)Cn1nc(-c2nccc3ccccc23)oc1=O` (stereo not given), with inactive: 96%; and `O=C(Cc1ccc(NC(=O)N2CCCCc3ccccc32)cc1)NCc1cccc(Br)c1`, with inactive: 91%; and `CC(=O)Nc1ccc2c(c1)S(=O)(=O)c1cc(NC(C)=O)ccc1-2`, with inactive: 85%.
Consider `COc1ccc(Cl)cc1NC(=O)Cn1c(=O)n(-c2ccc(C)cc2)c(=O)c2ccc(C(=O)NCc3ccccc3Cl)cc21`, for which the survival was inactive: 84%.
